# Data published in the supplement of paper PMC8728848.
# The other results are listed elsewhere or left out.
# Legend:
# Experiment in all cases: glycan array binding signal (z-score within array); higher = stronger binding
# Conditions in all cases: glycan notation: IUPAC condensed, linker removed
# [1] = target: GlcNAc(b1-3)Gal(b1-3)GalNAc
# How it was run: (§1)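 Glycan array data were curated from 3228 arrays in the Consortium for Functional Glycomics database and kept only where the protein sequence was available. Glycan names were converted to IUPAC-condensed notation, and columns mapping to the same glycan were averaged. The binding signal is a within-array Z-score, averaged across arrays of the same protein sequence at different concentrations or buffers and across linkers. Negative Z-scores can be read as non-binding.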
# GlcNAc(b1-3)Gal(b1-4)Glc = target: GlcNAc(b1-3)Gal(b1-4)Glc
# How it was run: as §1
# [2] = target: GlcNAc(b1-3)Gal(b1-4)GlcNAc
# How it was run: as §1
# [3] = target: GlcNAc(b1-3)Gal(b1-4)GlcNAc(b1-2)Man(a1-3)[GlcNAc(b1-3)Gal(b1-4)GlcNAc(b1-2)Man(a1-6)]Man(b1-4)GlcNAc(b1-4)GlcNAc
# How it was run: as §1
# [4] = target: GlcNAc(b1-3)Gal(b1-4)GlcNAc(b1-2)Man(a1-3)[GlcNAc(b1-3)Gal(b1-4)GlcNAc(b1-2)Man(a1-6)]Man(b1-4)GlcNAc(b1-4)[Fuc(a1-6)]GlcNAc
# How it was run: as §1
# [5] = target: GlcNAc(b1-3)Gal(b1-4)GlcNAc(b1-2)[GlcNAc(b1-3)Gal(b1-4)GlcNAc(b1-6)]Man(a1-6)[GlcNAc(b1-3)Gal(b1-4)GlcNAc(b1-2)Man(a1-3)]Man(b1-4)GlcNAc(b1-4)GlcNAc
# How it was run: as §1
# [6] = target: GlcNAc(b1-3)Gal(b1-4)GlcNAc(b1-3)Gal(b1-4)GlcNAc
# How it was run: as §1
# [7] = target: GlcNAc(b1-3)Gal(b1-4)GlcNAc(b1-3)Gal(b1-4)GlcNAc(b1-2)Man(a1-3)[GlcNAc(b1-3)Gal(b1-4)GlcNAc(b1-3)Gal(b1-4)GlcNAc(b1-2)Man(a1-6)]Man(b1-4)GlcNAc(b1-4)GlcNAc
# How it was run: as §1
# [8] = target: GlcNAc(b1-3)Gal(b1-4)GlcNAc(b1-3)Gal(b1-4)GlcNAc(b1-2)Man(a1-3)[GlcNAc(b1-3)Gal(b1-4)GlcNAc(b1-3)Gal(b1-4)GlcNAc(b1-2)Man(a1-6)]Man(b1-4)GlcNAc(b1-4)[Fuc(a1-6)]GlcNAc
# How it was run: as §1
# [9] = target: GlcNAc(b1-3)Gal(b1-4)GlcNAc(b1-3)Gal(b1-4)GlcNAc(b1-2)[GlcNAc(b1-3)Gal(b1-4)GlcNAc(b1-3)Gal(b1-4)GlcNAc(b1-6)]Man(a1-6)[GlcNAc(b1-3)Gal(b1-4)GlcNAc(b1-3)Gal(b1-4)GlcNAc(b1-2)Man(a1-3)]Man(b1-4)GlcNAc(b1-4)[Fuc(a1-6)]GlcNAc
# How it was run: as §1
# [10] = target: GlcNAc(b1-3)Gal(b1-4)GlcNAc(b1-3)Gal(b1-4)GlcNAc(b1-3)Gal(b1-4)GlcNAc(b1-2)Man(a1-3)[GlcNAc(b1-3)Gal(b1-4)GlcNAc(b1-3)Gal(b1-4)GlcNAc(b1-3)Gal(b1-4)GlcNAc(b1-2)Man(a1-6)]Man(b1-4)GlcNAc(b1-4)GlcNAc
# How it was run: as §1
# [11] = target: GlcNAc(b1-3)Gal(b1-4)GlcNAc(b1-3)Gal(b1-4)GlcNAc(b1-3)Gal(b1-4)GlcNAc(b1-2)Man(a1-3)[GlcNAc(b1-3)Gal(b1-4)GlcNAc(b1-3)Gal(b1-4)GlcNAc(b1-3)Gal(b1-4)GlcNAc(b1-2)Man(a1-6)]Man(b1-4)GlcNAc(b1-4)[Fuc(a1-6)]GlcNAc
# How it was run: as §1
# [12] = target: GlcNAc(b1-3)Gal(b1-4)GlcNAc(b1-3)Gal(b1-4)GlcNAc(b1-3)Gal(b1-4)GlcNAc(b1-2)[GlcNAc(b1-3)Gal(b1-4)GlcNAc(b1-3)Gal(b1-4)GlcNAc(b1-3)Gal(b1-4)GlcNAc(b1-6)]Man(a1-6)[GlcNAc(b1-3)Gal(b1-4)GlcNAc(b1-3)Gal(b1-4)GlcNAc(b1-3)Gal(b1-4)GlcNAc(b1-2)Man(a1-3)]Man(b1-4)GlcNAc(b1-4)[Fuc(a1-6)]GlcNAc
# How it was run: as §1
# [13] = target: GlcNAc(b1-3)Gal(b1-4)GlcNAc(b1-3)Gal(b1-4)GlcNAc(b1-3)Gal(b1-4)GlcNAc(b1-3)Gal(b1-4)GlcNAc(b1-2)Man(a1-3)[GlcNAc(b1-3)Gal(b1-4)GlcNAc(b1-3)Gal(b1-4)GlcNAc(b1-3)Gal(b1-4)GlcNAc(b1-3)Gal(b1-4)GlcNAc(b1-2)Man(a1-6)]Man(b1-4)GlcNAc(b1-4)GlcNAc
# How it was run: as §1
# [14] = target: GlcNAc(b1-3)Gal(b1-4)GlcNAc(b1-3)Gal(b1-4)GlcNAc(b1-3)Gal(b1-4)GlcNAc(b1-3)Gal(b1-4)GlcNAc(b1-2)Man(a1-3)[GlcNAc(b1-3)Gal(b1-4)GlcNAc(b1-3)Gal(b1-4)GlcNAc(b1-3)Gal(b1-4)GlcNAc(b1-3)Gal(b1-4)GlcNAc(b1-2)Man(a1-6)]Man(b1-4)GlcNAc(b1-4)[Fuc(a1-6)]GlcNAc
# How it was run: as §1
# [15] = target: GlcNAc(b1-3)Gal(b1-4)GlcNAc(b1-3)Gal(b1-4)GlcNAc(b1-3)Gal(b1-4)GlcNAc(b1-3)Gal(b1-4)GlcNAc(b1-2)[GlcNAc(b1-3)Gal(b1-4)GlcNAc(b1-3)Gal(b1-4)GlcNAc(b1-3)Gal(b1-4)GlcNAc(b1-3)Gal(b1-4)GlcNAc(b1-6)]Man(a1-6)[GlcNAc(b1-3)Gal(b1-4)GlcNAc(b1-3)Gal(b1-4)GlcNAc(b1-3)Gal(b1-4)GlcNAc(b1-3)Gal(b1-4)GlcNAc(b1-2)Man(a1-3)]Man(b1-4)GlcNAc(b1-4)[Fuc(a1-6)]GlcNAc
# How it was run: as §1
# [16] = target: GlcNAc(b1-3)Gal(b1-4)GlcNAc(b1-3)Gal(b1-4)GlcNAc(b1-3)GalNAc
# How it was run: as §1
# [17] = target: GlcNAc(b1-3)Gal(b1-4)GlcNAc(b1-3)GalNAc
# How it was run: as §1
# [18] = target: GlcNAc(b1-3)Gal(b1-4)GlcNAc(b1-3)[GlcNAc(b1-3)Gal(b1-4)GlcNAc(b1-3)]GalNAc
# How it was run: as §1
# [19] = target: GlcNAc(b1-3)Gal(b1-4)GlcNAc(b1-6)[Gal(b1-3)]GalNAc
# How it was run: as §1
# [20] = target: GlcNAc(b1-3)Gal(b1-4)GlcNAc(b1-6)[GlcNAc(b1-3)Gal(b1-3)]GalNAc
# How it was run: as §1
# [21] = target: GlcNAc(b1-3)Gal(b1-4)GlcNAc(b1-6)[GlcNAc(b1-3)]Gal(b1-4)GlcNAc
# How it was run: as §1
# GlcNAc(b1-3)GalNAc = target: GlcNAc(b1-3)GalNAc
# How it was run: as §1
# GlcNAc(b1-3)Man = target: GlcNAc(b1-3)Man
# How it was run: as §1
# [22] = target: GlcNAc(b1-3)[GlcNAc(b1-4)][GlcNAc(b1-6)]GlcNAc
# How it was run: as §1
# [23] = target: GlcNAc(b1-3)[GlcNAc(b1-6)]Gal(b1-4)GlcNAc
# How it was run: as §1
# [24] = target: GlcNAc(b1-3)[GlcNAc(b1-6)]GalNAc
# How it was run: as §1
# [25] = target: GlcNAc(b1-4)Gal(b1-4)GlcNAc
# How it was run: as §1
# GlcNAc(b1-4)GlcNAc = target: GlcNAc(b1-4)GlcNAc
# How it was run: as §1
# [26] = target: GlcNAc(b1-4)GlcNAc(b1-4)GlcNAc
# How it was run: as §1
# [27] = target: GlcNAc(b1-4)GlcNAc(b1-4)GlcNAc(b1-4)GlcNAc(b1-4)GlcNAc
# How it was run: as §1
# [28] = target: GlcNAc(b1-4)GlcNAc(b1-4)GlcNAc(b1-4)GlcNAc(b1-4)GlcNAc(b1-4)GlcNAc
# How it was run: as §1
# [29] = target: GlcNAc(b1-4)[GlcNAc(b1-6)]GalNAc
# How it was run: as §1
# [30] = target: GlcNAc(b1-6)Gal(b1-4)GlcNAc
# How it was run: as §1
# GlcNAc(b1-6)GalNAc = target: GlcNAc(b1-6)GalNAc
# How it was run: as §1
# [31] = target: GlcNAc6S(b1-3)Gal(b1-4)GlcNAc
# How it was run: as §1
# Kdn(a2-3)Gal(b1-3)GalNAc = target: Kdn(a2-3)Gal(b1-3)GalNAc
# How it was run: as §1
# Kdn(a2-3)Gal(b1-3)GlcNAc = target: Kdn(a2-3)Gal(b1-3)GlcNAc
# How it was run: as §1
# Kdn(a2-3)Gal(b1-4)Glc = target: Kdn(a2-3)Gal(b1-4)Glc
# How it was run: as §1
# Kdn(a2-3)Gal(b1-4)GlcNAc = target: Kdn(a2-3)Gal(b1-4)GlcNAc
# How it was run: as §1
# [32] = target: Kdn(a2-3)Gal(b1-4)[Fuc(a1-3)]GlcNAc
# How it was run: as §1
# Kdn(a2-6)Gal(b1-4)GlcNAc = target: Kdn(a2-6)Gal(b1-4)GlcNAc
# How it was run: as §1
# [33] = target: Man(a1-2)Man(a1-2)Man(a1-3)Man
# How it was run: as §1
# [34] = target: Man(a1-2)Man(a1-2)Man(a1-6)[Man(a1-3)]Man
# How it was run: as §1
# Man(a1-2)Man(a1-3)Man = target: Man(a1-2)Man(a1-3)Man
# How it was run: as §1
binder,measurement,setting,value
PFL (Pseudomonas fluorescens) (protein) MSKYAVANQWGGSSAPWHPGGTWVLGARDNQNVVAIEIKSGDGGKSFTGTMTYAGEGPIGFKAQRTGQNQYNVENQWGGNDAPWHPGGKWVIGGRDNQNVIALSVTSSDGGKNLSGTNTYANEGPIGFRGQIE,glycan array binding signal (z-score),[1],-0.113
same,glycan array binding signal (z-score),GlcNAc(b1-3)Gal(b1-4)Glc,-0.117
same,glycan array binding signal (z-score),[2],-0.116
same,glycan array binding signal (z-score),[3],-0.111
same,glycan array binding signal (z-score),[4],-0.025
same,glycan array binding signal (z-score),[5],-0.08
same,glycan array binding signal (z-score),[6],-0.114
same,glycan array binding signal (z-score),[7],-0.108
same,glycan array binding signal (z-score),[8],-0.096
same,glycan array binding signal (z-score),[9],-0.11
same,glycan array binding signal (z-score),[10],-0.114
same,glycan array binding signal (z-score),[11],-0.096
same,glycan array binding signal (z-score),[12],-0.109
same,glycan array binding signal (z-score),[13],-0.109
same,glycan array binding signal (z-score),[14],0.02
same,glycan array binding signal (z-score),[15],-0.106
same,glycan array binding signal (z-score),[16],-0.11
same,glycan array binding signal (z-score),[17],-0.112
same,glycan array binding signal (z-score),[18],-0.11
same,glycan array binding signal (z-score),[19],-0.115
same,glycan array binding signal (z-score),[20],-0.112
same,glycan array binding signal (z-score),[21],-0.118
same,glycan array binding signal (z-score),GlcNAc(b1-3)GalNAc,-0.114
same,glycan array binding signal (z-score),GlcNAc(b1-3)Man,-0.116
same,glycan array binding signal (z-score),[22],-0.116
same,glycan array binding signal (z-score),[23],-0.112
same,glycan array binding signal (z-score),[24],-0.116
same,glycan array binding signal (z-score),[25],-0.118
same,glycan array binding signal (z-score),GlcNAc(b1-4)GlcNAc,-0.11
same,glycan array binding signal (z-score),[26],-0.117
same,glycan array binding signal (z-score),[27],-0.118
same,glycan array binding signal (z-score),[28],-0.118
same,glycan array binding signal (z-score),[29],-0.116
same,glycan array binding signal (z-score),[30],-0.117
same,glycan array binding signal (z-score),GlcNAc(b1-6)GalNAc,-0.111
same,glycan array binding signal (z-score),[31],-0.113
same,glycan array binding signal (z-score),Kdn(a2-3)Gal(b1-3)GalNAc,-0.056
same,glycan array binding signal (z-score),Kdn(a2-3)Gal(b1-3)GlcNAc,-0.117
same,glycan array binding signal (z-score),Kdn(a2-3)Gal(b1-4)Glc,-0.101
same,glycan array binding signal (z-score),Kdn(a2-3)Gal(b1-4)GlcNAc,-0.107
same,glycan array binding signal (z-score),[32],-0.115
same,glycan array binding signal (z-score),Kdn(a2-6)Gal(b1-4)GlcNAc,-0.11
same,glycan array binding signal (z-score),[33],-0.115
same,glycan array binding signal (z-score),[34],-0.085
same,glycan array binding signal (z-score),Man(a1-2)Man(a1-3)Man,-0.105
